Some of the results follow. Construct or isoform of the protein are uncertain.

The test has as its target GST-SBP-ILF3 (Homo sapiens) (UniProt Q12906). As to the kind of experiment: targeted RNA Bind-n-Seq. As to conditions: RBNS binding buffer: 25 mM Tris pH 7.5, 150 mM KCl, 3 mM MgCl2, 0.1% Tween, 0.5 mg/mL BSA, 1 mM DTT; 27 nM protein, 750 pM RNA pool; temperature not stated; high values mean tight binding; sequences stand for … in GGGUAAAAGCGAGGUGAA…CGGGACAAGUAUUAUGGG
In the case of “UUUUUUUUUUGAGAACGGAGUAAUAAAAAA [ttttgagaunpaired]”, the binding signal (log2 fold change) was -0.21. The same measure for “UUUUUUUUUUGAGACGGAUGCCGUCUCCGG [tttttgagapaired]”: 0.495; for “UUUUUUUUUUGAGAUGGUUUCCAUCUCCAG [tttttgagapaired]”: 0.13. With “UUUUUUUUUUGAGAUGGUCCCCAUCUCCAG [tttttgagapaired]” the figure was 0.92. The same measure for “GUGUGGUGUGUUGGCCUCUAACACAUCAUA [gtspaired]”: -0.863; for “UUUUUUUUUUGAGAGCGAGGCGUUCUCCUA [tttttgagapaired]”: 0.324; for “UUUUUUUUUUGAGACCGGCACGGUCUUCUA [tttttgagapaired]”: 0.284. With “UUUUUUUUUUGAGACUGAAGCAGUUUCCGG [tttttgagapaired]”, the binding signal (log2 fold change) was determined as 0.547. The same measure for “GUGGUGUGUGUUGGAAUCUAACACACGCUA [gtspaired]”: -0.736; for “UUUUUUUUUUGAGAUCGUAGCGAUCUUCUA [tttttgagapaired]”: 0.269; for “UUUUUUUUUUGAGACGGUGACCGUUUCCUA [tttttgagapaired]”: 0.532. The same measure for “UUUUUUUUUUGAGACUGGGACAGUUUCCGG [tttttgagapaired]”: 0.653. Consider “UUUUUUUUUUGAGAUCGAGACGAUCUCCUG [tttttgagapaired]”, for which the binding signal (log2 fold change) was 0.292.

On to “GGUGUUGGUGUUGGUAUCUAACACCAGCGC [gtspaired]”, for which the binding signal (log2 fold change) is -0.754. On to “GUGGUUGGUGUUGGACCCUAACACCGACCG [gtspaired]”, for which the binding signal (log2 fold change) was -0.529.

Take “GUGUGGUGUGUUGGAUUCUAACACACUACG [gtspaired]”: the binding signal (log2 fold change) was -0.582.

For “UUCCUCUCUCCUCCUCGGGAGGGGGGAGGA [ctspaired]”, the binding signal (log2 fold change) was -0.447.

As for “UUUUUUUUUUGAGACUGUUUCAGUCUCCGG [tttttgagapaired]”, the binding signal (log2 fold change) worked out at 0.345. Turning to “UUUUUUUUUUGAGACUGAAACAGUUUCCUA [tttttgagapaired]”, the binding signal (log2 fold change) was -0.00173.

Take “UUUUUUUUUUGAGAGGGGGUCCUUCUCCUA [tttttgagapaired]”: the binding signal (log2 fold change) was found to be 0.803. With “UUUUUUUUUUGAGAGCGAGGCGCUCUCCGG [tttttgagapaired]” the figure was 0.244; with “UUUUUUUUUUGAGACCGGGGCGGUUUCCUA [tttttgagapaired]”, 0.588; with “GGUUGGUGUGUUGGACCCUAACACAUCGAC [gtspaired]”, -0.383. With “GGUUGUGGUGUUGGCACCUAACACCAUAAC [gtspaired]” the figure was -0.46; with “UUUUUUUUUUGAGACGGACGCCGUCUUCUA [tttttgagapaired]”, 0.473.

Regarding “UUUUUUUUUUGAGAGCGUAACGUUCUUCUG [tttttgagapaired]”, the binding signal (log2 fold change) stood at 0.584. The same measure for “UUUUUUUUUUGAGAUGGACGCUAUCUCCAG [tttttgagapaired]”: 0.482; for “UUUUUUUUUUGAGAUGGGAUCCAUCUCCGG [tttttgagapaired]”: -0.0765; for “GUGUGUUGUGUUGGCUUCUAACACAACGCA [gtspaired]”: -0.201. Turning to “UUUUUUUUUUGAGAUGGAGUCCGUCUCCUG [tttttgagapaired]”, the binding signal (log2 fold change) turned out to be 0.561.

For “GUUGUGUGUGUUGGAGUCUAACACACACGA [gtspaired]”, the binding signal (log2 fold change) was -0.536. On to “GUGUGGUGUGUUGGCGCCUAACACACCAUA [gtspaired]”, for which the binding signal (log2 fold change) is -0.283. Take “UUUUUUUUUUGAGAGGGACCCCCUCUCCUA [tttttgagapaired]”: the binding signal (log2 fold change) worked out at 0.493. With “GGUGGUGGUGUUGGCGUCUAACACCGCUAC [gtspaired]” the figure was -0.37; with “UUUUUUUUUUGAGAUCGGGGCGAUCUCCGG [tttttgagapaired]”, 0.236. The same measure for “UUUUUUUUUUGAGACGGAAACCGUUUUCUA [tttttgagapaired]”: 0.239. In the case of “GUUGGUGGUGUUGGACCCUAACACCACCAG [gtspaired]”, the binding signal (log2 fold change) was -0.461. As for “GGUGUGUGUGUUGGUCCCUAACACAUACAC [gtspaired]”, the binding signal (log2 fold change) was -0.628. On to “UUUUUUUUUUGAGACGGCUUCCGUCUCCAG [tttttgagapaired]”, for which the binding signal (log2 fold change) was found to be 0.592. On to “UUUUUUUUUUGAGACUGACACAGUCUUCUA [tttttgagapaired]”, for which the binding signal (log2 fold change) was -0.129. With “UUUUUUUUUUGAGAUGGGCUCCAUCUUCUA [tttttgagapaired]” the figure was 0.378. With “UUUUUUUUUUGAGAUGGGAGCUAUCUCCUA [tttttgagapaired]” the figure was 0.349.

Turning to “UUUUUUUUUUGAGACUGAAACAGUUUCCGG [tttttgagapaired]”, the binding signal (log2 fold change) is 0.365. On to “UUUUUUUUUUGAGACUGGAACAGUUUUCUA [tttttgagapaired]”, for which the binding signal (log2 fold change) was 0.0124. Take “UUUUUUUUUUGAGAUCGAAACGAUUUCCAG [tttttgagapaired]”: the binding signal (log2 fold change) was 0.136. With “GGUGUUGGUGUUGGCUUCUAACACCGACGC [gtspaired]” the figure was -0.39; with “GUGUGUGGUGUUGGAGUCUAACACCAUACG [gtspaired]”, -0.474; with “UUUUUUUUUUGAGACGGAGGCCGUUUCCAG [tttttgagapaired]”, 0.687. As to “UUUUUUUUUUGAGAUGGGAACCAUCUUCUA [tttttgagapaired]”, the binding signal (log2 fold change) amounted to 0.0161.

Regarding “UUUUUUUUUUGAGAUGGAGGCCAUCUCCGG [tttttgagapaired]”, the binding signal (log2 fold change) stood at 0.373.

With “UUUUUUUUUUGAGACCGUUUCGGUCUCCUG [tttttgagapaired]”, the binding signal (log2 fold change) worked out at 0.4. The same measure for “GUGUGUUGUGUUGGCGUCUAACACAGCACG [gtspaired]”: -0.721; for “UUUUUUUUUUGAGAGGGUGCCCCUCUUCUG [tttttgagapaired]”: 0.409; for “UUUUUUUUUUGAGAGGGCUUCCCUCUUCUG [tttttgagapaired]”: 0.496.

In the case of “GUGGUUGGUGUUGGUGCCUAACACCAGCCG [gtspaired]”, the binding signal (log2 fold change) is -0.352. The same measure for “UUCUCUCUUCCUCCAUAGGAGGAGGAGGGA [ctspaired]”: -0.374. Take “UUUUUUUUUUGAGAUGGGAGCUAUCUCCGG [tttttgagapaired]”: the binding signal (log2 fold change) came out at 0.426. The same measure for “GUGUGGUGUGUUGGAAUCUAACACAUCGCG [gtspaired]”: -0.747; for “UUUUUUUUUUGAGACUGAAUCAGUCUUCUG [tttttgagapaired]”: 0.186.

Consider “GUGUUGUGUGUUGGUGCCUAACACACAGCA [gtspaired]”, for which the binding signal (log2 fold change) is -0.576. With “UUUUUUUUUUGAGACUGGGGCAGUUUUCUA [tttttgagapaired]” the figure was 0.754. The same measure for “GUGGUUGGUGUUGGCCCCUAACACCGACCG [gtspaired]”: -0.677; for “UUUUUUUUUUGAGAUCGUAUCGAUCUCCGG [tttttgagapaired]”: 0.165; for “GUGGUUGGUGUUGGUCCCUAACACCGACCG [gtspaired]”: -0.454. With “UUUUUUUUUUGAGAACGGGGCGUUCUCCUA [tttttgagapaired]” the figure was 0.308; with “UUUUUUUUUUGAGACUGGAACAGUCUCCUG [tttttgagapaired]”, 0.223. “UUUUUUUUUUGAGAUGGCGACCAUCUCCUA [tttttgagapaired]”: the binding signal (log2 fold change) was determined as 0.276. With “UUUUUUUUUUGAGACGGGAACCGUUUCCGG [tttttgagapaired]” the figure was 0.639. In the case of “UUUUUUUUUUGAGACUGCUUCAGUCUCCUA [tttttgagapaired]”, the binding signal (log2 fold change) is -0.00297. With “UUUUUUUUUUGAGACCGAACCGGUCUCCUG [tttttgagapaired]” the figure was 0.198.

Regarding “UUUUUUUUUUGAGACGGGCUCCGUCUCCAG [tttttgagapaired]”, the binding signal (log2 fold change) stood at 0.494.

For “UUUUUUUUUUGAGAUGGCCACCAUCUCCUG [tttttgagapaired]”, the binding signal (log2 fold change) is 0.757.

For the sequence “GUGUGUGGUGUUGGACUCUAACACCGCGCA [gtspaired]”, the binding signal (log2 fold change) was -0.14. The same measure for “GGUGUGUGUGUUGGACUCUAACACACGCGC [gtspaired]”: -1.11. With “UUUUUUUUUUGAGACCGCAGCGGUCUCCAG [tttttgagapaired]” the figure was 0.746; with “GUGUGUGGUGUUGGCAUCUAACACCACGCG [gtspaired]”, -0.58. As to “UUCUCUCUUCCUCCGGUGGAGGAGGGGAGA [ctspaired]”, the binding signal (log2 fold change) is -0.184.

Consider “GUGUGUGGUGUUGGACUCUAACACCGCACG [gtspaired]”, for which the binding signal (log2 fold change) was -0.603.

Consider “UUUUUUUUUUGAGACCGAAACGGUUUCCUG [tttttgagapaired]”, for which the binding signal (log2 fold change) was 0.537. For “UUUUUUUUUUGAGAGCGGGGCGUUCUUCUA [tttttgagapaired]”, the binding signal (log2 fold change) came to 0.779. “GUGUGUUGUGUUGGCGCCUAACACAACGCG [gtspaired]”: the binding signal (log2 fold change) was -0.365. In the case of “GUGGUUGGUGUUGGCUCCUAACACCGACUA [gtspaired]”, the binding signal (log2 fold change) was -0.619. For “UUUUUUUUUUGAGAGCGAACCGUUCUCCGG [tttttgagapaired]”, the binding signal (log2 fold change) was determined as 0.275. With “UUUUUUUUUUGAGACCGGACCGGUCUCCUA [tttttgagapaired]” the figure was 0.362. For “UUUUUUUUUUGAGAUGGGCACCAUCUCCUA [tttttgagapaired]”, the binding signal (log2 fold change) came out at 0.499.

As for “GUGGUGUGUGUUGGCACCUAACACAUACUA [gtspaired]”, the binding signal (log2 fold change) was -0.582. With “UUUUUUUUUUGAGACGGGGUCUGUCUCCGG [tttttgagapaired]” the figure was 0.704. With “UUUUUUUUUUGAGAGGGGACCCCUCUCCUG [tttttgagapaired]” the figure was 0.996; with “UUUUUUUUUUGAGAUCGAGACGGUCUCCGG [tttttgagapaired]”, 0.4. With “UUUUUUUUUUGAGAUGGAGGCCAUCUUCUA [tttttgagapaired]” the figure was 0.314. For the sequence “UUUUUUUUUUGAGACCGAAUCGGUCUUCUA [tttttgagapaired]”, the binding signal (log2 fold change) is 0.115.

With “UUUUUUUUUUGAGAGGGACCCCCUCUUCUA [tttttgagapaired]”, the binding signal (log2 fold change) came out at 0.306.

For “GUGUGGUGUGUUGGCUUCUAACACAUCAUA [gtspaired]”, the binding signal (log2 fold change) was -0.721. Turning to “UUUUUUUUUUGAGACGGGAACCGUCUUCUG [tttttgagapaired]”, the binding signal (log2 fold change) turned out to be 0.197. With “GUGUGUGGUGUUGGCCUCUAACACCACAUA [gtspaired]”, the binding signal (log2 fold change) is -0.479. The same measure for “UUUUUUUUUUGAGAUGGACGCCAUCUCCGG [tttttgagapaired]”: 0.561; for “UUUUUUUUUUGAGAUCGUAGCGAUCUCCGG [tttttgagapaired]”: 0.244. In the case of “UUUUUUUUUUGAGACUGCAACAGUUUCCAG [tttttgagapaired]”, the binding signal (log2 fold change) is 0.483. With “UUUUUUUUUUGAGAGGGGGGCCCUCUCCUG [tttttgagapaired]” the figure was 0.976; with “UUUUUUUUUUGAGACUGUAACAGUCUCCGG [tttttgagapaired]”, 0.429; with “UUUUUUUUUUGAGACGGACUCCGUCUCCAG [tttttgagapaired]”, 0.55.

With “GGUGUGUGUGUUGGAUCCUAACACACGCGC [gtspaired]”, the binding signal (log2 fold change) was -0.146.

The values above are taken from article PMC5892938.
